From ChEMBL document CHEMBL4888484, “Replenishing the malaria drug discovery pipeline: Screening and hit evaluation of the MMV Hit Generation Library 1 (HGL1) against asexual blood stage Plasmodium falciparum ,using a nano luciferase reporter read-out” (2022)
In all, about 150,000 compounds went through this assay and about 540 (0.36%) showed an effect of 50% or more. The list shows a part of the results.

Tested on: Plasmodium falciparum
Experiment: Primary screen in NF54 nanoGlo assay, in single point, at 2uM, 72h; a lower Z score goes with more inhibition
Type: functional, Erythrocyte
Settings: timepoint 72 hour

Row | SMILES | % Inhibition | Z score | % Inhibition (2 µM)
1 | c1cn(-c2ccc(N3CCC(N[C@@H]4COC5(CCCCC5)C4)CC3)cc2)cn1 | 8% | -1.06 | –
2 | Cc1nsc(NC(=O)c2cccnc2)n1 | 31% | -3.54 | –
3 | CC(C)CCNC(=O)[C@@H]1CC2(CN(Cc3ccccc3)C2)CN1C | -1% | 0.24 | –
4 | CCc1ccc(N2C[C@@H](c3ncon3)CC2=O)cc1 | -11% | 1.04 | –
5 | Cc1nn(C)c(C)c1-c1ccnc(NC[C@H]2CCCO2)n1 | -18% | 1.73 | –
6 | CC(NC(=O)NC(C)(C)C)C1CCCN(C(=O)c2cnns2)C1 (centres undefined) | -9% | 1.77 | –
7 | CN(C)c1ncccc1CNc1cc(C#N)ccn1 | 6% | -0.7 | –
8 | Cc1cccc(-c2nc(Cn3nnc(C(=O)NCc4ccc(Cl)cc4)c3N)c(C)o2)c1 | -11% | 1.55 | –
9 | COc1ccc(C(=O)N(Cc2cc(NS(=O)(=O)c3ccc(OC)cc3)ccc2N(C)C)C2CC2)cc1 | 6% | -1.06 | –
10 | Cc1nc2c(C(=O)N(C)Cc3ccncc3C)cccc2[nH]1 | -8% | 1.38 | –
11 | CCCNC(=O)CN(CCC)c1ncc(F)cn1 | -10% | 0.98 | –
12 | CN(C(=O)CCc1cnn(C)c1)c1cc(Cl)cc(Cl)c1 | -16% | 2.51 | –
13 | CC(C)C(=O)NCCNC(=O)c1cnccn1 | 4% | -0.67 | –
14 | CCS(=O)(=O)Oc1ccccc1CN(C(=O)NC(C)C)C(C)C | 0% | 0.05 | –
15 | O=C(c1cnccn1)N1CCC2(CC1)NC(c1ccccc1)=NO2 | -18% | 1.65 | –
16 | COC(=O)CCN(C)Cc1cc(C)on1 | -6% | 0.63 | –
17 | O=C(CNC(=O)c1ccc2c(c1)CCCC2)NC1CC1 | -3% | 0.32 | –
18 | O=C(CC1CCN(C(=O)c2ccc3nc(-c4ccccc4)oc3c2)CC1)NCc1ccc2c(c1)OCO2 | -7% | 0.97 | –
19 | COc1ccc(CN2C[C@H]3CC[C@@H](C2)[C@H]3O)c(OC)c1OC | -25% | 3.62 | –
20 | Cc1ccc(-c2c3c(=O)n(C)c(=O)n(C)c3c3n2-c2ccccc2N[C@@H]3c2cccc(F)c2F)cc1 | 3% | -0.51 | –
21 | Cc1ccc2ncc(CN(C)Cc3cccn3C)n2c1 | 6% | -0.83 | –
22 | COC1CC(CCNC(=O)c2cnn(C(C)C)c2Cl)C1 (centres undefined) | -9% | 1.46 | –

Row | SMILES | % Inhibition | Z score | % Inhibition (2 µM)
23 | O=C(c1cc2ccccc2[nH]1)N1CC[C@H](Cc2nncn2CC2CC2)C1 | -11% | 1.93 | –
24 | O=C(c1ccc(F)cc1)N1CCN(Cc2csc(C3CCCCC3)n2)CC1 | -5% | 0.59 | –
25 | CCOC(C)(C)CNc1ncnc(N)c1Cl | -6% | 1.15 | –
26 | O=C(O)[C@@H]1CCCCN1C(=O)C1CCC=CCC1 | -6% | 1.09 | –
27 | CC(C)[C@H](NC(=O)c1ccc(=O)n(C)c1)C1(CO)CCCC1 | -5% | 0.56 | –
28 | CC[C@H]1CN(C(=O)NC(C2CC2)C2CC2)CCO1 | 3% | -0.34 | –
29 | c1ccc(CCCN2CCCC[C@H]2c2ncc[nH]2)cc1 | -6% | 1.1 | –
30 | Cc1ccc(C)c(C(=O)N2CCC3(CCC(=O)N(Cc4ccncc4)C3)CC2)c1 | -9% | 0.91 | –
31 | COc1ccccc1[C@H]1CC(=O)Nc2c1c(=O)[nH]n2C1CCCCCCC1 | 28% | -3.11 | –
32 | Cn1cc(C2CCN(Cc3nnc(-c4ccccc4)o3)CC2)cn1 | 1% | -0.14 | –
33 | Cc1cc(CNC(C)C2CCCO2)no1 (centres undefined) | 6% | -1.12 | –
34 | CN(C(=O)c1nn2c(C(F)(F)F)c3c(nc2c1Cl)-c1ccccc1CC3)c1ccc(OC(F)(F)F)cc1 | 25% | -3.28 | –
35 | CN(C)[C@@H](CNS(C)(=O)=O)c1cccs1 | 17% | -1.97 | –
36 | COC(=O)Cn1ccc(NS(=O)(=O)N2CC3CCC2C3)n1 (centres undefined) | -6% | 0.53 | –
37 | COc1ccc(CNC(=O)Cn2c(=O)n(Cc3cccc(Cl)c3)c(=O)c3ccccc32)cc1 | -7% | 1 | –
38 | Cc1ccsc1-c1nnc(CC(=O)NCc2cccc(Cl)c2)o1 | -6% | 0.95 | –
39 | CN(c1ccccc1NC(=O)NCc1nccn1C)C1CCCC1 | 32% | -3.63 | –
40 | CCN1CCN(CC(=O)N2CC[C@@]3(CCCN(CCC4CCCCC4)C3)C2)CC1 | -8% | 1.12 | –
41 | C[C@H]1CN(C(=O)c2cccn3nccc23)C[C@@H]1CS(N)(=O)=O | -3% | 0.45 | –
42 | CN1CC2(CCN(c3ncnc4[nH]cnc34)CC2)C[C@@H](c2ccccc2)C1=O | -5% | 0.92 | –
43 | c1ccc(-c2cnn3c(-c4ccsc4)ccnc23)cc1 | -1% | 0.1 | –
44 | C[C@@H](CCc1ccccc1)NC(=O)c1n[nH]c2ccccc12 | -9% | 1.17 | –

Row | SMILES | % Inhibition | Z score | % Inhibition (2 µM)
45 | CN1CCn2ccnc2C12CCN(C(=O)Nc1ccccc1F)CC2 | -7% | 0.97 | –
46 | CCc1nc(C)c(CNC(=O)Cc2cnc[nH]c2=O)s1 | -3% | 0.55 | –
47 | COc1ccc(CC(=O)N2CCCN(c3cc(-c4ccc(Cl)cc4)n[nH]3)CC2)cc1 | -13% | 1.36 | –
48 | C[C@H]1CCOCCN1C(=O)NCc1ccccc1OC(C)(C)C | 8% | -1.13 | –
49 | CCN(Cc1c(C(=O)N2CCCCCCC2)nc2ccc(Cl)cn12)C1CC1 | -11% | 1.66 | –
50 | O[C@H]1[C@H](Nc2ncnc3c2ncn3C2CC2)CCCC1(F)F | -7% | 1.07 | –
51 | OC1Cc2ccccc2C1NC1C[C@@H]2COC[C@H]12 (some centres undefined) | 16% | -2.09 | –
52 | CN1C(=O)c2cccc(NC(=O)c3ccc(Cl)s3)c2C1=O | -10% | 1.76 | –
53 | O=C(NCCCn1ccccc1=O)c1cc(=O)c2ccccc2[nH]1 | 0% | -0.07 | –
54 | Cc1ccc(C(=O)N2[C@H](C(=O)NCc3cccnc3)COC23CCN(C(=O)c2ccc(F)cc2)CC3)cc1 | 2% | -0.3 | –
55 | O=C(NCc1cc(C2CC2)on1)[C@H]1CCC[C@H](O)C1 | -3% | 0.37 | –
56 | Cc1nc(N2CCCC2C(=O)N(C)CC2COCCO2)nc2cc(S(C)(=O)=O)ccc12 (centres undefined) | -5% | 0.59 | –
57 | O=C1C[C@H](c2ccccc2Br)c2ncn(-c3cccnc3)c2N1 | 25% | -3.19 | –
58 | c1cncc(-c2c[nH]c([C@@H]3COCCN3C3CCOCC3)n2)c1 | -8% | 1.26 | –
59 | CC(C)N1CC[C@H](c2nc3ncccc3[nH]2)C1 | 30% | -3.41 | –
60 | O=C(NCCO)c1nc2ccc(Cl)cn2c1Br | -2% | 0.37 | –
61 | O=C(c1ccc(C(F)(F)F)cc1)[C@H]1CCCN(Cc2nc3ccccc3[nH]2)C1 | -3% | 0.32 | –
62 | NC(=O)c1c(NC(=O)c2cc(S(=O)(=O)N3CCCCC3)ccc2Cl)sc2c1CCCC2 | -15% | 2.06 | –
63 | Cc1c(NC(=O)[C@H](C)c2ccc3c(c2)OCO3)noc1C(C)(C)C | 6% | -1.27 | –
64 | CCCNc1ncc(CN(C)Cc2cnn(C)c2)cn1 | 1% | -0.25 | –
65 | Cc1nn(C)c(C)c1CC(=O)N(c1cccc(F)c1)C1CCOCC1 | -10% | 1.22 | –
66 | NC1=NC2(CCN(c3ncnc4[nH]ccc34)CC2)C(=O)N1 | 1% | -0.11 | –

Row | SMILES | % Inhibition | Z score | % Inhibition (2 µM)
67 | CC1CCN(C(=O)c2ccc3ncsc3c2)CC1 | -7% | 0.96 | –
68 | Cc1ccsc1-c1nccn1-c1ccc2c(c1)NC(=O)CO2 | -14% | 1.93 | –
69 | Cc1ccc(C(=O)N[C@@H](C)c2cnccn2)o1 | -25% | 2.55 | –
70 | Cc1cc(-c2nc(C(=O)N3CC[C@@H]4CCC[C@@H]43)co2)ccn1 | 15% | -1.96 | –
71 | Cc1c(CNCc2cccc(F)c2)c(C(=O)O)c(C)n1-c1ccccc1 | -7% | 1.25 | –
72 | COCCCN1CC(=O)N[C@@H]2CN(C(=O)c3ccnc(OC)c3)CC[C@@H]2OCc2cccc(c2)Oc2ccc(cc2OC)CCC1=O | 10% | -1.42 | –
73 | Cc1ccc(/C(=N/c2sc(-c3ccccc3)nc2-c2ccccc2)N2CCN(c3ccccc3)CC2)cc1 | -10% | 1.32 | –
74 | CCCN(Cc1cc(-c2ccc(OC)cc2OC)on1)C(=O)CC | -10% | 1.49 | –
75 | Cc1nc(N2CCCC2)nc(C)c1NC(=O)c1c(F)cccc1F | -2% | 0.3 | –
76 | c1ccc2c(c1)CC(NC1CCN(c3ccc(-n4cncn4)cc3)CC1)C2 | 14% | -1.88 | –
77 | O=C(Cc1ccccc1)n1cnc2ccccc21 | 12% | -1.4 | –
78 | COCC(=O)N1CC[C@@]2(O)CCN(C/C=C/c3ccc(OC)cc3)C[C@H]2C1 | -6% | 1.23 | –
79 | Cn1nc(-c2ccccc2F)c2cc(C(=O)N3CCc4ccccc4C3)sc21 | -3% | 0.45 | –
80 | Cc1cc2c(cc1C(=O)N(C)CCCc1nccn1C)OCCO2 | -13% | 1.63 | –
81 | O=c1c2ccccc2nc(-c2cccc(OCc3ccccc3)c2)n1C1CCCCC1 | -3% | 0.48 | –
82 | CCC(CC)(CNC(=O)NCCC(=O)Nc1ccc(Br)cc1)N(C)C | -16% | 1.91 | –
83 | O=C(Nc1ncccc1O)c1cc(O)ncn1 | 3% | -0.49 | –
84 | Cc1nn(C)c(=O)c2cc(S(=O)(=O)NCc3ccco3)cn12 | 6% | -0.77 | –
85 | CC1CCC2(C)c3[nH]c4ccccc4c3CCCN2C1=O (centres undefined) | – | – | -3%
